Laboratory results published in article PMC4336329 (PLoS ONE, 2015).
The campaign covered roughly 310,000 compounds. About 2,200 (0.71%) showed an effect of 50% or more. The effect is printed as a negative number. Some of the results follow.

Molecular target: human ether-à-go-go-related gene (hERG) potassium channel (human, UniProt Q12809)
Experiment: primary screen, population patch clamp on CHO cells stably expressing hERG

Sequence of human ether-à-go-go-related gene (hERG) potassium channel (Q12809 whole entry, looked up): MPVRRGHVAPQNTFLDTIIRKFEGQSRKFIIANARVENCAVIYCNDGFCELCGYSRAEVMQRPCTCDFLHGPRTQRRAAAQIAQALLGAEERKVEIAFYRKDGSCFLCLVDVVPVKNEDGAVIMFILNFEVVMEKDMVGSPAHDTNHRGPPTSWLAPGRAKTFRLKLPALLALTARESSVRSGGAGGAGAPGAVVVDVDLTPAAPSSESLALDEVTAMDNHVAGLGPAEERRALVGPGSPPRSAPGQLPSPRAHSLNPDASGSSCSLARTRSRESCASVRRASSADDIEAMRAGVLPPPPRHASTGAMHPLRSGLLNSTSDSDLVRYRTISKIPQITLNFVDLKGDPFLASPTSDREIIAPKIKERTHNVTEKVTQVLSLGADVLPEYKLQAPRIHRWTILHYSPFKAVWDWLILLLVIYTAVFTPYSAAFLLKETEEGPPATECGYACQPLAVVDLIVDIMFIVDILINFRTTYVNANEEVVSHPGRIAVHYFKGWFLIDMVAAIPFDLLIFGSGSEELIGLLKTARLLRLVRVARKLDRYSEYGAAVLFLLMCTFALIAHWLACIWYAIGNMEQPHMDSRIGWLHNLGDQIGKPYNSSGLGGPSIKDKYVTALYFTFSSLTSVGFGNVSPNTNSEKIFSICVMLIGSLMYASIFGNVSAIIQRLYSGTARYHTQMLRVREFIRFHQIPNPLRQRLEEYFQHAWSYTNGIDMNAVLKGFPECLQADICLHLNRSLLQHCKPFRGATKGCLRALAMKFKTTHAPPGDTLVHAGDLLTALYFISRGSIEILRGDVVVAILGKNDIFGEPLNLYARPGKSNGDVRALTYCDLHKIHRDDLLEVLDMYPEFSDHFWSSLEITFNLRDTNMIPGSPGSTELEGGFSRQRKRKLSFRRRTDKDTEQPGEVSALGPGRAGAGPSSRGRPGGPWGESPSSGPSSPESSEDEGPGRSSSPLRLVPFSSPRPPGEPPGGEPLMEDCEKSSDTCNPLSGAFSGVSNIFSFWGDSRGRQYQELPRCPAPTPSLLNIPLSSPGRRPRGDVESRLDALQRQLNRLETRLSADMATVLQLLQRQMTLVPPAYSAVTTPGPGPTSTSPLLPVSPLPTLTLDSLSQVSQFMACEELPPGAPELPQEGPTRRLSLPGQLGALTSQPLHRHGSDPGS

| SMILES | hERG current change (%, negative = inhibition) at 1uM |
| --- | --- |
| CC1CN(c2cc([N+](=O)[O-])ccc2Cl)CC(C)N1 (stereo not shown) | -12.7% |
| CCOc1cc(/C=C2/C(=O)N(c3ccccc3)N=C2C)ccc1OC(=O)c1ccco1 | 9.52% |
| CCN(CC)S(=O)(=O)c1ccc(Cl)c(NC(=O)c2ccc(C#N)cc2)c1 | 8.99% |
| CCN(CC)C(=O)CN1C(=O)C2(OCC(C)(c3ccccc3)CO2)c2ccccc21 (stereo not shown) | 2.44% |
| O=c1[nH]c(CSc2nnc3ccccn23)nc2cc(C(F)(F)F)ccc12 | 3.39% |
| CC1CC(NC(=O)C2(C)CC2(Cl)Cl)CC(C)(C)C1 (stereo not shown) | 7.26% |
| COc1cccc(C(=O)N(CN2CCCC2=O)c2ccccc2OC)c1 | 1.44% |
| CCOC(=O)c1c(/N=C/c2c(O)n(-c3cccc(C)c3)c(=O)[nH]c2=O)sc2c1CCCC2 | 11.9% |
| CCN(CC)c1ccc(C(=O)N/N=C/c2ccc(OC)cc2OC)cc1 | 32.7% |
| O=C(/C=C/Nc1ccc(OC(F)(F)F)cc1)C(F)(F)F | -18% |
| CCN(CC)CCCNC(=O)C(C)Sc1nc(-c2ccccc2)cc(C(F)(F)F)n1 (stereo not shown) | -1.74% |
| COc1ccc(N2C(=O)C(Cl)=C(Nc3ccc(OC)cc3OC)C2=O)cc1 | -0.76% |
| COc1ccc(S(=O)(=O)Nc2nncs2)cc1 | 7.67% |
| COc1cc2cc(C)c(SCC(=O)N3CCOCC3)nc2cc1OC | 12.3% |
| COc1ccc(OC)c(-c2nc(C(=O)NCCCN3CCOCC3)cc3c2[nH]c2ccccc23)c1 | -21.7% |
| Cc1ccc(S(=O)(=O)NC(C)(C)CSc2nncn2C)cc1 | 1.92% |
| c1ccc(CN2CCc3nc4ccccc4cc3C2)cc1 | 11.2% |
| CCCCc1cc(=O)oc2cc(OCC(=O)NC(Cc3c[nH]c4ccc(O)cc34)C(=O)O)ccc12 (stereo not shown) | 6.8% |
| CCOc1ccc2nc(NC(=O)C(CC)Sc3nc(C)cc(=O)[nH]3)sc2c1 (stereo not shown) | 8.04% |
| Cc1nnc(N/N=C/c2ccccn2)[nH]c1=O | 12.4% |
| CCOc1ccc(NC(=O)C2CCCN(S(=O)(=O)c3c(C)n[nH]c3C)C2)cc1 (stereo not shown) | 4.92% |
| CCC(C)NC(=O)COCc1cc(-c2ccc3c(c2)OCO3)on1 (stereo not shown) | 10.8% |

| SMILES | hERG current change (%, negative = inhibition) at 1uM |
| --- | --- |
| NC(=O)CSc1nnc(Cc2ccc3c(c2)OCO3)n1C1CCCCC1 | 1.41% |
| COc1ccccc1CC1(C)NC(=O)N(CC(=O)N2CCc3ccccc3C2)C1=O (stereo not shown) | -10.1% |
| CC1=CC(C)(C)Nc2ccc(OC(=O)CN3C(=O)c4ccccc4C3=O)cc21 | 21% |
| CCC(NC(=O)NCCCn1ccnc1)(C(F)(F)F)C(F)(F)F | 13.1% |
| Cc1cc(-c2ccccc2)nc(N/N=C/c2cccnc2)n1 | 17.4% |
| Cc1oc(-c2ccc(Cl)cc2)nc1CS(=O)CC(=O)NCc1ccccc1 (stereo not shown) | 10.6% |
| CCCc1nc2ccc(NC(C)=O)cc2c(=O)n1Cc1cccc(Cl)c1 | 5.73% |
| COc1cccc(/C=C/C(=O)OCC(=O)Nc2ccc(Cl)c(S(=O)(=O)N(C)C)c2)c1 | 16.4% |
| O=C(NCCCCc1ccccc1)c1ccccc1 | 8.89% |
| CCCC(=O)C1=C(O)C(C(=O)OC)C(C)(C)CC1=NCc1ccccc1 (stereo not shown) | 10.2% |
| Cc1cc2c(c(=O)n1Cc1cccnc1)C(Cc1ccccc1)C(C#N)=C(N)O2 (stereo not shown) | -9.18% |
| Cc1ccc(-c2nn(CCC(=O)Nc3cccnc3)c(=O)c3ccccc23)cc1 | -15.2% |
| Cc1ccc(C(C)C)c(OCc2ccc(C(=O)N/N=C/c3cccc(O)c3O)cc2)c1 | 15.9% |
| Cc1nc(-c2cccc(NC(=O)c3cccs3)c2)cs1 | 7.12% |
| CCc1[nH]nc2c1C(Cc1ccccc1)C(C#N)=C(N)O2 (stereo not shown) | -17.1% |
| Cc1ccsc1/C=N/NC(=O)C1CC(=O)N(c2ccccc2)C1 (stereo not shown) | -3.07% |
| CS(=O)(=O)n1nc(NCc2cccs2)nc1NCc1cccs1 | 10.5% |
| CCC(=O)NNc1cccc(Cl)n1 | 8.04% |
| COC(=O)CCN(C)CCC(=O)OC.Cl | 6.66% |
| O=C(CC1SC(=NC2CCCCC2)NC1=O)Nc1ccccc1 (stereo not shown) | 11.9% |
| CCOC(=O)N1CCN(Cc2ccc(OCC(O)CN3CCCCC3)cc2)CC1 (stereo not shown) | 17.4% |
| CC(C)CS(=O)(=O)C1=NN2C(=N)/C(=C\c3ccc(OC(=O)c4ccco4)cc3)C(=O)N=C2S1 | 3.57% |

| SMILES | hERG current change (%, negative = inhibition) at 1uM |
| --- | --- |
| CN1CCN(c2ccc(-c3cccc(NC(=O)COc4ccc(Cl)cc4Cl)c3)nn2)CC1 | 5.98% |
| CCCCCN1CN(S(=O)(=O)c2cccs2)c2nc3ccccc3nc21 | 6.37% |
| CC(C)(C)C1CCC(=NNC(=O)CN(c2ccccc2)S(=O)(=O)c2ccccc2[N+](=O)[O-])CC1 (stereo not shown) | 14% |
| c1ccc(COc2ccc(OCCOCCn3cncn3)cc2)cc1 | -5.15% |
| CCOC(=O)C1=C(C)NC(=S)NC1c1ccc(OCC(=O)N2CCCCC2)cc1 (stereo not shown) | 6.25% |
| CCOc1ccccc1-n1c(SCC(N)=O)nnc1-c1ccccc1 | 2.08% |
| Cc1noc(NS(=O)(=O)c2ccc(NC(=O)CSc3nc4c(cc3C#N)CCCCC4)cc2)c1C | -0.778% |
| CNS(=O)(=O)c1ccc(NC(=O)c2ccoc2C)cc1 | 11% |
| Cc1cnc(C(=O)OCC(=O)Nc2ccc(Br)cc2F)cn1 | 11.2% |
| C/C(=N\Nc1ccccc1)c1cccc(N)c1 | 12.4% |
| C=CCn1c(SCC(=O)Nc2ccccc2C)nnc1-c1ccncc1 | 13.2% |
| CCOc1ccc2oc(C(=O)NCc3nc4ccccc4[nH]3)c(C)c2c1 | 13.3% |
| CCCc1sc(N)nc1-c1ccc(C)cc1 | 0.826% |
| COC(=O)c1ccc(Nc2nc(C)nc3c2nnn3Cc2ccccc2)cc1 | 15.4% |
| CC(C)Oc1cccc(C(=O)NC(=S)Nc2cccc(NC(=O)c3ccccc3Cl)c2)c1 | -1.78% |
| COc1ccc(/C(C)=N/NC(=O)c2nc(C)cc(C)n2)cc1 | 5.24% |
| COc1ccc(-c2cc(C(=O)N3CCN(c4ccccc4)CC3)no2)cc1OC | 17.8% |
| Cc1cc(=O)n2[nH]c(-c3sccc3-n3c(C)ccc3C)cc2n1 | 8.77% |
| Cc1cc(OCCN2CCOCC2)ccc1Cl | 11.8% |
| O=C(Nc1nccs1)c1c(O)c2c(n(Cc3ccco3)c1=O)CCCC2 | 13.9% |
| Fc1ccc(Cn2nnc(-c3ccc(CN4CCOCC4)cc3)n2)cc1 | -1.65% |
| COc1ccc(OC)c(S(=O)(=O)N2CCC(C(=O)NCc3ccc4c(c3)OCO4)CC2)c1 | 1.15% |

| SMILES | hERG current change (%, negative = inhibition) at 1uM |
| --- | --- |
| COc1ccc(/C=C(/CC(=O)Nc2ccccc2)c2nc3ccccc3s2)cc1 | 3.13% |
| CCn1nnc(-c2ccccc2NC(=O)c2ccc(-n3cnnn3)cc2)n1 | -0.981% |
| C/C(=N\NC(=O)c1cccc(N/N=C(\C)c2ccncc2)c1)c1ccncc1 | -1.1% |
| Cc1nn(CC(=O)Nc2ccc3c(c2)nc2n3CCOC2)c(=O)c2ccccc12 | 7.76% |
| CC(NC(=O)/C(C#N)=C/c1cn(-c2ccccc2)nc1-c1ccc(F)cc1)c1ccccc1 (stereo not shown) | 8.31% |
| COc1cc(C(=O)NNC(=S)Nc2ccc(S(N)(=O)=O)cc2)cc(OC)c1OC | 8.57% |
| CCn1nnnc1SCC(=O)N(C1CCCCC1)C1CCCCC1 | -8.06% |
| COc1ccc(C2=NS(=O)(=O)N(C)C(C(=O)NCc3ccco3)=C2)cc1OC | -15.5% |
| Cc1nc(Nc2ccccc2F)c2nnn(Cc3ccccc3Cl)c2n1 | 13.7% |
| COc1ccc(OCCCC(=O)NCCc2nc3ccccc3[nH]2)cc1 | 9.57% |
| NC(=O)c1sc2nc3c(c(-c4cccnc4)c2c1N)CCC3 | 10.9% |
| O=C(CNC(=O)C1COc2ccccc2O1)N/N=C\c1ccc(Cl)cc1 (stereo not shown) | -34.9% |
| COc1ccc(C)cc1-n1nnnc1SCC(=O)Nc1cc(C)on1 | 0.44% |
| CCOC(=O)C1=C(C)NC(C)=C(C(=O)OCC)C1c1cccc(C)n1 | 9.44% |
| Clc1ccc2ncc(-c3nnnn3-c3ccccc3)c(-c3ccccc3)c2c1 | 8.72% |
| O=C(NNC(=O)c1ccccc1Br)c1cccc(Cl)c1 | -3.87% |
| CNc1sc(C(=O)c2ccc(F)cc2)c(N)c1-c1nc2ccccc2s1 | 5.15% |
| CCCC(c1c(C)n(C)n(-c2ccccc2)c1=O)c1c(C)n(C)n(-c2ccccc2)c1=O | 11.7% |
| COc1ccc(C(=O)NCc2ccc3c(c2)OCO3)c(OC)c1 | 13.6% |
| CCc1cc2c3c(c(=O)oc2cc1O)CCCC3 | 11.7% |
| C(#Cc1ccccc1)CN1CCN(c2ccccn2)CC1.Cl | 7.81% |
| CCN1CCN(c2nc(Nc3ccc(OC)cc3)nc(N)c2[N+](=O)[O-])CC1 | 1.06% |
